PubChem BioAssay AID1347417 (National Center for Advancing Translational Sciences (NCATS), 2020)
About 5,300 (4.4%) of roughly 120,000 compounds were called active. Inconclusive results, whose numbers are uncertain, are shown with a selection of clear calls. Calls follow the shape of the dose curve; as a rule, active = well fitted inhibition curve with a large enough effect; inconclusive = small, poorly fitted or top-dose-only effect; inactive = no such curve, though single readings can be large or run the other way. Potencies beside an inconclusive call are fits to weak or partial responses and may not hold up.
Potency is read from the fitted curve at half-maximal effect; tags tell the direction and shape of the fitted curve.

Assay: qHTS Primary assay for Inhibitors of Plasmodium falciparum Dd2 growth in vitro; also: nearly all actives have a fitted effect of over 65% in size;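 as to activity, negative = inhibition: plate controls were DMSO vehicle for no effect and reference drug for full effect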
Settings: P. falciparum Dd2 growth, SYBR Green, 72 h; activity, negative = inhibition: at 28.9 µM (top of the series) unless noted; series mostly up to 28.9 µM
Method in brief: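 Readout: SYBR Green fluorescence, 485 nm excitation, 535 nm emission, after ~16 h lysis at 37C. Before that, Dd2-infected red cells (2.5% hematocrit) grew 72 h with compound, 29 uM top final concentration.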
With `CCCS(=O)(=O)NC[C@H]1C[C@@H]2CCN1C[C@@H]2c1cc(C2CCCCC2)nn1C` the Potency was inconclusive: 10 µM [inhibitor, partial curve, poor fit].
For `Cc1ccc(C(=O)Nc2c(C(=O)NC(C)(C)C)oc3ccccc23)cc1`, the Potency was inconclusive: 10 µM [inhibitor, single point].
With `O=C1Nc2ccccc2CN(CC2CCCC2)C12CCNC2` (centres undefined) the Potency was inconclusive: 2.24 µM [inhibitor, full curve].
With `CCNC(=O)N1CCOC(CN(CC(C)C)C(=O)c2cccc(OC)c2)C1` (centres undefined) the Potency was inconclusive: 5.62 µM [inhibitor, partial curve, poor fit].
With `CC(C)Cn1ccc2c(NC(=O)C[C@H]3NC(=O)c4ccccc4NC3=O)cccc21` the Potency was inconclusive: 11.2 µM [inhibitor, partial curve].
For `CCN1CCN(c2oc(/C=C/c3ccc(OC)c(OC)c3)nc2C#N)CC1`, the Potency was inconclusive: 17.8 µM [inhibitor, single point].
In the case of `CCCS(=O)(=O)N1CCC(c2noc(-c3cccnc3)n2)C1` (centres undefined), the activity, negative = inhibition is reported as inactive: 54.4% [at 5.79 µM].
In the case of `COc1ccccc1CN1CC2(C1)C(=O)N(Cc1ccccc1)C(=O)[C@@H]1C[C@@H](O)CN12`, the Potency is reported as inconclusive: 11.2 µM [inhibitor, single point].
With `N#Cc1ccc(CN2C[C@@H](CO)[C@H](c3ccccn3)C2)cc1` the Potency was inconclusive: 5.62 µM [inhibitor, single point].
With `CCCN(C)C(=O)c1cn2cc(-c3cccc(Cl)c3)n(CC=C(C)C)c(=O)c2n1` the Potency was active: 12.6 µM.
In the case of `CCOc1ccccc1C(=O)N1CCC(N2C(=O)CCC2C(=O)NCc2ccccc2)CC1` (centres undefined), the Potency is reported as inconclusive: 5.62 µM [inhibitor, partial curve, poor fit].
For `CC1CCC(NC(=O)c2ccc3c(c2)N(Cc2ccccc2F)C(=O)c2ccccc2S3=O)CC1` (centres undefined), the Potency was active: 10 µM.
For `COc1ccc(C2C(=O)N(C3CCCCC3)CC(=O)N2CCC2=CCCCC2)cc1` (centres undefined), the Potency was inconclusive: 11.2 µM [inhibitor, single point].
For `CC(C)C[C@@H]1N[C@H](C(=O)NCCCN2CCCC2=O)Cc2c[nH]c3cccc1c23`, the Potency was inconclusive: 17.8 µM [inhibitor, partial curve, poor fit].
In the case of `N#Cc1ccc(C(=O)N2CCCN(Cc3ccncc3)C(c3ccccc3)CC(=O)NCC2)cc1` (centres undefined), the Potency is reported as inconclusive: 8.91 µM [inhibitor, partial curve, poor fit].
With `COCCn1ncc(N2CCC(C(=O)Nc3ccc(N4CCOCC4)cc3)C2)cc1=O` (centres undefined) the Potency was inconclusive: 10 µM [inhibitor, single point].
In the case of `O=C(NCCC1CCN(C(=O)Nc2ccccc2F)CC1)c1ccccc1F`, the Potency is reported as inconclusive: 17.8 µM [inhibitor, single point].
In the case of `CCCCNC(=O)CN1C(=O)NC(c2ccc(OCC)cc2)C2=C1COC2=O` (centres undefined), the Potency is reported as “inactive”.
In the case of `COc1ccc(NC(=O)Cn2c3ncccc3c(=O)n2-c2ccc(C)c(C)c2)c(OC)c1`, the activity, negative = inhibition is reported as inconclusive: -72.3% [inhibitor] [at 5.79 µM].
In the case of `CN1CC2(CCN(C(=O)Cc3cccc(F)c3)CC2)CC1C(=O)N1CCOCC1` (centres undefined), the Potency is reported as inconclusive: 3.16 µM [inhibitor, partial curve, poor fit].
For `COC(=O)c1ccc(COC(=O)C2=CN(C)S(=O)(=O)N=C2C)o1`, the Potency was “inactive”.
In the case of `CCCCN1C(=O)c2[nH]nc(-c3ccccc3O)c2C1c1cc(Br)c(O)c(OC)c1` (centres undefined), the Potency is reported as “inactive”.
For `Cc1cc(C[C@@H]2COC[C@@H]2NC(=O)c2ccc3nc(C)sc3c2)on1`, the Potency was inconclusive: 17.8 µM [inhibitor, single point].
For `Fc1ccc(CC2CCOC3(CCNCC3)C2)cc1` (centres undefined), the Potency was inconclusive: 1.58 µM [inhibitor, partial curve, poor fit].
For `CN(Cc1ccc(OC(F)(F)F)cc1)C1CCOc2ccccc21` (centres undefined), the Potency was “inactive”.
With `Cc1cc(C)n(CCC(=O)NC2CCCN(c3cc(-c4ccc(Cl)cc4)[nH]n3)C2)n1` (centres undefined) the Potency was “inactive”.
For `Cc1ccc(CN2CCC3(C2)NC(=O)c2ccccc2O3)cc1` (centres undefined), the Potency was inconclusive: 22.4 µM [inhibitor, single point].
In the case of `O=C(Cc1ccccc1)N1CCC2(CC1)N(c1ccccc1)C(=O)CS2(=O)=O`, the Potency is reported as “inactive”.
With `COc1ccccc1NC(=O)CN1CC2CC(C1)[C@H]1CCCC(=O)N1C2` (some centres undefined) the Potency was “inactive”.
With `COCCN1CC(CO)C2(CCN(Cc3ccc(F)c(Cl)c3)CC2)C1` (centres undefined) the Potency was inconclusive: 2 µM [inhibitor, full curve, poor fit].
With `COCCNC(=O)c1nc(-c2ccc([S+](C)(=O)[O-])cc2)c2ccccn12` the Potency was inconclusive: 0.158 µM [inhibitor, full curve, poor fit].
With `CN(C)[C@@H]1CN(C(=O)c2cc(F)cc(F)c2)C[C@H]1CO` the Potency was “inactive”.
With `CC(=O)C1=C(c2ccc(Cl)c(Cl)c2)N(C(C)=O)n2c(nnc2C2CCCCC2)S1` the Potency was inconclusive: 3.55 µM [inhibitor, single point].
With `CCOC(=O)N1CCC(NC(=O)c2ccc3c(c2)N(Cc2ccccc2)C(=O)c2ccccc2S3=O)CC1` (centres undefined) the Potency was inconclusive: 1.26 µM [inhibitor, full curve, poor fit].
With `CCCCN(Cc1ccccc1)S(=O)(=O)c1cc(Br)cc2c1N(C(=O)C1CC1)CC2` the Potency was inconclusive: 4.47 µM [inhibitor, partial curve, poor fit].
With `COc1cc(NC(=O)c2ccc(-c3nc(COc4ccccc4)c(C)o3)cc2)cc(OC)c1` the Potency was inconclusive: 17.8 µM [inhibitor, single point].
In the case of `COc1ccc(C2(C(=O)N[C@@H]3CN(c4ccncn4)C[C@H]3CN(C)C)CC2)cc1`, the Potency is reported as inconclusive: 3.55 µM [inhibitor, full curve, poor fit].
In the case of `CCCCN1CCN(C(=O)C2(c3ccc(NC(=O)C(C)C)cc3)CCCCC2)CC1`, the Potency is reported as inconclusive: 11.2 µM [inhibitor, single point].
In the case of `Cc1cc(C)c(CNC(=O)c2nc(Nc3ccccc3)cc3[nH]ccc23)c(=O)[nH]1`, the Potency is reported as inconclusive: 31.6 µM [inhibitor, single point].
In the case of `O=C(N1C[C@@H](CO)[C@H](c2ccccn2)C1)C1(c2ccccc2)CCCC1`, the Potency is reported as inconclusive: 5.62 µM [inhibitor, partial curve, poor fit].
In the case of `CCOc1ccc(N(CC)S(=O)(=O)N2CCCC(C(=O)Nc3ccc(OC)c(OC)c3)C2)cc1` (centres undefined), the Potency is reported as inconclusive: 20 µM [inhibitor, partial curve, poor fit].
For `c1coc(CN2CC(Oc3ccc(-c4noc(-c5ccncc5)n4)cc3)C2)c1`, the Potency was inconclusive: 3.98 µM [inhibitor, single point].
In the case of `COC1C(=O)N(c2cccc(F)c2)C12CCN(Cc1sccc1C)CC2` (centres undefined), the Potency is reported as inconclusive: 17.8 µM [inhibitor, single point].
For `CCn1cc2nc(SCc3ccccc3Cl)n(CCc3ccccc3)c(=O)c2n1`, the Potency was inconclusive: 17.8 µM [inhibitor, single point].
With `COc1cc(F)ccc1-c1nccc2c(=O)cc(N3CCN(C)CC3)oc12` the Potency was inconclusive: 3.98 µM [inhibitor, single point].
With `CCCC1CCCN1C(=O)c1coc(COc2ccc3ccc(OC)cc3c2)n1` (centres undefined) the Potency was inconclusive: 10 µM [inhibitor, partial curve, poor fit].
With `COc1ccccc1C(=O)N1CCCn2nc(C)c(-c3ccccc3C(C)C)c21` the Potency was inconclusive: 3.98 µM [inhibitor, partial curve, poor fit].
With `O=C(c1cnccn1)N1CCc2c(n(Cc3ccccc3)n(-c3ccccc3)c2=O)C1` the Potency was “inactive”.
For `CCOC(=O)C1CCCN(C(=O)c2cccc(NC(=O)c3nsc4ccccc34)c2)C1` (centres undefined), the Potency was inconclusive: 17.8 µM [inhibitor, single point].
For `CN1C[C@@H](NC(=O)C2CCCCC2)C[C@H]1c1nc(-c2ccc(Cl)cc2)no1`, the Potency was “inactive”.
For `CCn1cc(S(=O)(=O)N2CCC(Cc3nncn3C)C2)cn1` (centres undefined), the Potency was “inactive”.
In the case of `CC(c1cccs1)N(C)Cc1cccnc1` (centres undefined), the Potency is reported as inconclusive: 3.55 µM [inhibitor, single point].
In the case of `CCCn1c(SCc2nc(-c3cc(OC)ccc3OC)no2)nnc1-c1ccc(Cl)cc1`, the Potency is reported as inconclusive: 11.2 µM [inhibitor, partial curve].
In the case of `CC1=C[C@@H](CO)[C@H](C(C)C)C[C@H]1CC(=O)N1CCN(c2ccccn2)CC1`, the Potency is reported as “inactive”.
For `CC(=O)N1CCCC2(C1)CN(C)c1ccc(C(=O)NCC(C)C)cc12` (centres undefined), the Potency was “inactive”.
In the case of `CC(=O)Nc1c(C)nn(-c2ccccc2)c1N1CCC(C(=O)Nc2ccc(F)cc2Cl)CC1`, the Potency is reported as inconclusive: 11.2 µM [inhibitor, single point].
For `COc1ccc(N(C)C(=O)c2ccc3c(c2)N(S(C)(=O)=O)CC3)cc1`, the Potency was “inactive”.
With `Cc1cccc(NC(=O)N2CCC(CN3CCC(C)CC3)CC2)c1C` the Potency was “inactive”.
For `CC(C)N1CCC2(CC1)CN(C(=O)C1CCOCC1)Cc1ccccc1O2`, the Potency was “inactive”.
With `COc1ccc(-c2noc(-c3cccn3CC(=O)Nc3cccc(F)c3)n2)cc1F` the Potency was inconclusive: 1 µM [inhibitor, full curve, poor fit].
In the case of `CCOc1ccc(C(=O)N2CCN(c3cc(-c4cccs4)[nH]n3)CC2)cc1`, the Potency is reported as “inactive”.
For `Cc1ccccc1CNC(=O)C1CCN(c2nnc(-n3c(C)ccc3C)s2)CC1`, the Potency was inconclusive: 8.91 µM [inhibitor, single point].
With `CCC(CC)CN1C[C@]23C=C[C@H](O2)C(C(=O)N(C)Cc2nccs2)C3C1=O` (some centres undefined) the Potency was “inactive”.
In the case of `COc1ccc(-n2c(=O)c3c(n2Cc2ccccc2)CN(C(=O)COc2ccccc2)CC3)cc1`, the Potency is reported as inconclusive: 17.8 µM [inhibitor, single point].
